According to the RNAGym collection of RNA variant scans (doi:10.1093/nar/gkz1192):
Read counts are not given, so values of variants with three or more changes are uncertain.

B1: CPEB3 Ribozyme (parent)
chain: UAACAGGGGGCCACAGCAGAAGCGUUCACGUCGCAGCCCCUGUCAGAUUCUGGUGAAUCUGCGAAUUCUGCUGUAUAUCUC

Variants of: B1
Test: self-cleavage, relative activity (ratio to wild type); higher = more cleavage; in vitro, sequencing
In short: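 Relative activity compares each variant's cleaved/total read fraction with that of the unmutated ribozyme. To get these fractions, barcoded CPEB3 ribozyme libraries from rounds of error-prone PCR were transcribed with T7 RNA polymerase for 5 hours at 37°C and then given 15 min of DNase I treatment before EDTA was added. The RNAs were reverse transcribed with template switching and sequenced on Illumina, and DNA sequencing linked barcodes to variants. A minimum of 5 reads applied, and three batches were averaged.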
Variant A15U U58C A65G has a self-cleavage of 0.18. Variant A15U U58C U60C has a self-cleavage of 0.12. For A15U U58C U78C, the self-cleavage was 0.33. Variant A15U U60A U67C U74C A75U A77G has a self-cleavage of 0.06. A15U U60C A75U showed a self-cleavage of 0.42. In the case of A15U U60C C71U, the self-cleavage is reported as 0.15. A15U U60C U67G U80A showed a self-cleavage of 0.16. With A15U U60C U78G the self-cleavage was 0.14. With A15U U60G G70A U80A the self-cleavage was 0.11. A15U U66C G73U gave a self-cleavage of 0.19. Variant A15U U66C U69C has a self-cleavage of 0.26. In the case of A15U U67A U69A, the self-cleavage is reported as 0.13. For A15U U67A U72C, the self-cleavage was 0.25. A15U U67C U72A U76A showed a self-cleavage of 0.17. A15U U67C U72C showed a self-cleavage of 0.32. A15U U69A U76C gave a self-cleavage of 0.3. Variant A15U U69C U78C has a self-cleavage of 0.13. Variant A15U U72A U74C has a self-cleavage of 1.24. A15U U72G U76C showed a self-cleavage of 0.89. A15U U74A U76A gave a self-cleavage of 0.91. With A15U U74A U80A the self-cleavage was 1.17. For A15U U74C U76C, the self-cleavage was 0.26. For G16A A18G U25A G33A, the self-cleavage was 0.04. G16A A18G U31A U41C A45U A65G showed a self-cleavage of 0.12. G16A A18G U72A gave a self-cleavage of 0.16. Work on G16A A18U A21C A45U U66C U80C yielded a self-cleavage of 0.05. In the case of G16A A18U U31C C34U U72C, the self-cleavage is reported as 0.21. Variant G16A A18U U51C U54C has a self-cleavage of 0.27. G16A A18U U60C showed a self-cleavage of 0.17. G16A A20C C29U gave a self-cleavage of 0.13. In the case of G16A A20G U54C U78C, the self-cleavage is reported as 0.16. With G16A A21G U41G U54A the self-cleavage was 0.09. G16A A21G U49C U78C C81U showed a self-cleavage of 0.04. Variant G16A A21U A45G U49C has a self-cleavage of 0.18. In the case of G16A A28G A35U U43C U48C U51A, the self-cleavage is reported as 0.1. Work on G16A A28G C40U U78C yielded a self-cleavage of 0.14. Variant G16A A28G U43C U58A G61A U69A has a self-cleavage of 0.05. G16A A28G U78C showed a self-cleavage of 0.26. For G16A A28U G33A A45U, the self-cleavage was 0.1. For G16A A35C U41C A65G, the self-cleavage was 0.11. For G16A A35G U54C U60A, the self-cleavage was 0.1. Work on G16A A35G U80C yielded a self-cleavage of 0.92. G16A A45C U66C U72A showed a self-cleavage of 0.07. Work on G16A A45U U76C yielded a self-cleavage of 0.51. Variant G16A A47G U66A U80A has a self-cleavage of 0.09. For G16A A56U U60A U72G, the self-cleavage was 0.07. In the case of G16A A56U U69A U78A, the self-cleavage is reported as 0.07. With G16A A57G A75U the self-cleavage was 0.6. G16A A57G U80C showed a self-cleavage of 0.58. G16A C17G U66C U76C U80A showed a self-cleavage of 0.14. For G16A C17U A64U A77G, the self-cleavage was 0.07. G16A C17U C34U A47U U51A A64G U67C showed a self-cleavage of 0.02. For G16A C27A U43C, the self-cleavage was 0.17. In the case of G16A C27U U54A A56U U78C, the self-cleavage is reported as 0.06. G16A C29A U51A U60C U67C U74C gave a self-cleavage of 0.14. G16A C39A U76C gave a self-cleavage of 0.31. G16A C39U U41A C71G gave a self-cleavage of 0.08. Variant G16A C40A A47C has a self-cleavage of 0.05. Work on G16A C59U U72G yielded a self-cleavage of 0.12. G16A G22U C38U U54C U67C U69A showed a self-cleavage of 0.05. In the case of G16A G24A G61A U69C, the self-cleavage is reported as 0.11. G16A G24A U80A gave a self-cleavage of 0.07. For G16A G24U U26C A35G U60C, the self-cleavage was 0.12. G16A G30A G52A G61C U80C C81U gave a self-cleavage of 0.07. For G16A G30A U74C, the self-cleavage was 0.05. G16A G30U A57G showed a self-cleavage of 0.27. G16A G36C G63A U67C U69C C79A gave a self-cleavage of 0.05. With G16A G36C U74A U80A the self-cleavage was 0.03. Variant G16A G52C G61A G73A has a self-cleavage of 0.26. With G16A U25A G33A U60C the self-cleavage was 0.13. Variant G16A U25A U43A has a self-cleavage of 0.06. In the case of G16A U25C A28G U31C C37G A47G U78C, the self-cleavage is reported as 0.2. G16A U25C A45G U72G U78C gave a self-cleavage of 0.21. With G16A U25C C68U U80C the self-cleavage was 0.19. In the case of G16A U25C G33A U43C, the self-cleavage is reported as 0.17. G16A U25C U26A gave a self-cleavage of 0.3. With G16A U25C U41G U54C U76C the self-cleavage was 0.03. In the case of G16A U26A A45C U58C U78C, the self-cleavage is reported as 0.19. With G16A U26A C34U the self-cleavage was 0.06. G16A U26A U58C A75G gave a self-cleavage of 0.1. Work on G16A U26A U69A yielded a self-cleavage of 0.09. Work on G16A U26C A28C A64G U74C yielded a self-cleavage of 0.06. With G16A U26C A45U U60C U74A the self-cleavage was 0.18. G16A U26C G33A U58G U72G U78C gave a self-cleavage of 0.11. In the case of G16A U26C U41C U51A A57U U60G, the self-cleavage is reported as 0.11. Variant G16A U26C U48C C79U has a self-cleavage of 0.23. In the case of G16A U26C U49C U72C, the self-cleavage is reported as 0.18. Variant G16A U26C U66C has a self-cleavage of 0.09. In the case of G16A U31A A65G, the self-cleavage is reported as 0.13. Variant G16A U31A U54A A56G U78A has a self-cleavage of 0.4. Variant G16A U31C U80A has a self-cleavage of 0.16. G16A U31G U43C U60C gave a self-cleavage of 0.07. With G16A U41A A45C U48C U80A the self-cleavage was 0.03. G16A U41C G52A U69G showed a self-cleavage of 0.23. In the case of G16A U41C U58C U78A, the self-cleavage is reported as 0.32. G16A U41C U80C gave a self-cleavage of 0.79. Variant G16A U43A C62A U76A has a self-cleavage of 0.13. G16A U43A U49C U74G gave a self-cleavage of 0.15. Variant G16A U43C U48C C81U has a self-cleavage of 0.17. With G16A U43C U60G the self-cleavage was 0.19. With G16A U49C U51A U60C the self-cleavage was 0.13. For G16A U51A U58C, the self-cleavage was 0.16. G16A U51C U78C gave a self-cleavage of 0.34. G16A U54C U60C gave a self-cleavage of 0.18. G16A U60C U66A gave a self-cleavage of 0.13. For G16A U67A U72C, the self-cleavage was 0.48. G16A U67A U78C gave a self-cleavage of 0.27. G16A U74A U80C showed a self-cleavage of 0.67. For G16A U78C U80C, the self-cleavage was 0.6. In the case of G16C A18G A20U U26A A35G C68U, the self-cleavage is reported as 0.19. G16C A18G G33U G70A showed a self-cleavage of 0.42. In the case of G16C A18U C32A U43C, the self-cleavage is reported as 0.2. With G16C A20U A56G U78C the self-cleavage was 0.13. Variant G16C A21G U51C U72A has a self-cleavage of 0.06. Variant G16C A28G A45U U67C has a self-cleavage of 0.11. With G16C A28U A45G U51C U78C the self-cleavage was 0.07. G16C A28U C34U U43G U66C C71U U76C showed a self-cleavage of 0.07. With G16C A35G A47U U49A the self-cleavage was 0.11. For G16C A35U A64G U69A U72C, the self-cleavage was 0.12. In the case of G16C A45U A57G U72C U74A, the self-cleavage is reported as 0.07. For G16C A56U U80C, the self-cleavage was 0.26. G16C A57G C62U showed a self-cleavage of 0.15. Work on G16C C17U A47G A64U A75G yielded a self-cleavage of 0.14. Variant G16C C27U U31C A35G U48C U80C has a self-cleavage of 0.24. Variant G16C C29U U58C G70A has a self-cleavage of 0.12. Work on G16C C32U A35G A57G yielded a self-cleavage of 0.13. For G16C G19C U25C A35G, the self-cleavage was 0.21. Work on G16C G24C A47G yielded a self-cleavage of 0.2. With G16C G24C U78G the self-cleavage was 0.05. G16C G24U U25C G52C showed a self-cleavage of 0.14. With G16C G24U U26C G52C A75U the self-cleavage was 0.17. For G16C G33A U51A, the self-cleavage was 0.09. In the case of G16C U25A A45U U54A U67A, the self-cleavage is reported as 0.08. G16C U25A C40U U48C showed a self-cleavage of 0.06. For G16C U25C C62U U69C, the self-cleavage was 0.05. Variant G16C U25C U26A G42C A64G U66C has a self-cleavage of 0.04. For G16C U26A U41A U54C U78A U80G, the self-cleavage was 0.05. For G16C U26C G61U, the self-cleavage was 0.12. G16C U31A A56U showed a self-cleavage of 0.19. Work on G16C U31C U43G G53A A56U U74A yielded a self-cleavage of 0.05. In the case of G16C U31C U78C, the self-cleavage is reported as 0.22. Variant G16C U41C G46U U51G U60C U76A U80C has a self-cleavage of 0.17. Variant G16C U41C U43C has a self-cleavage of 0.2. G16C U49C A64G gave a self-cleavage of 0.13. For G16C U49C U58C U74C, the self-cleavage was 0.18. For G16C U54G A77G, the self-cleavage was 0.24. For G16U A18G U43C, the self-cleavage was 0.18. Variant G16U A18G U67C U72C has a self-cleavage of 0.12. Variant G16U A18G U78A has a self-cleavage of 0.51. G16U A18U U41A A47G showed a self-cleavage of 0.02. Work on G16U A20G A28U U31C U66C U80C yielded a self-cleavage of 0.05. Variant G16U A20G A47G U80C has a self-cleavage of 0.07. In the case of G16U A21G A28U C38A, the self-cleavage is reported as 0.25. Variant G16U A21G G24A C38A U60C has a self-cleavage of 0.23. In the case of G16U A21G U43C A47G U80C, the self-cleavage is reported as 0.29. Work on G16U A21G U51C G55A G63U U72A yielded a self-cleavage of 0.12. G16U A21U U26A U49A A65G showed a self-cleavage of 0.21. For G16U A21U U26C C32U A64G, the self-cleavage was 0.05. Variant G16U A28C U48C A57G U69A has a self-cleavage of 0.11. G16U A28G U51C U76A showed a self-cleavage of 0.09. For G16U A35G U41A U58C, the self-cleavage was 0.05. With G16U A45G U72A the self-cleavage was 0.19. In the case of G16U A47G U80C, the self-cleavage is reported as 0.69. G16U A56U U72C A77G gave a self-cleavage of 0.17. G16U C23A U41C A56G gave a self-cleavage of 0.06. Variant G16U C23U A35G has a self-cleavage of 0.36. Work on G16U C23U G46U G73C U78C yielded a self-cleavage of 0.19.
